The supplement of paper PMC4604168 (melanoma cell lines)
This is one part of the list. Repeats are few or missing, and single values can be far off.

System: UACC257
Experiment: cell count relative to DMSO control; melanoma cells; higher = more viable cells
Conditions: library dose: standard library concentration; 72 h
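Also: cells treated in 1,536-well plates, then fixed and DAPI-stained, with nuclei counted from automated high-throughput microscope images.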

| Structure (SMILES) | cell count [%] |
| --- | --- |
| C=CCNC1=C2C[C@@H](C)C[C@H](OC)[C@H](O)[C@@H](C)/C=C(\C)[C@H](OC(N)=O)[C@@H](OC)/C=C\C=C(/C)C(=O)NC(=CC1=O)C2=O [Tanespimycin] + COc1ccc(-c2ccc3c(N4CCOCC4)nc(N4C[C@@H](C)O[C@@H](C)C4)nc3n2)cc1CO [KU0063794] (first compound 0.01 µM, partner dose 0.1 µM) | 112 |
| CN1CCN(c2ccc3nc(-c4c(N)c5c(F)cccc5[nH]c4=O)[nH]c3c2)CC1 [Dovitinib] + COc1cc2ncnc(Nc3ccc(Oc4ccccc4)cc3)c2cc1OC [SrcI1] (first compound 0.5 µM, partner dose 10 µM) | 69.9 |
| C=CCNC1=C2C[C@@H](C)C[C@H](OC)[C@H](O)[C@@H](C)/C=C(\C)[C@H](OC(N)=O)[C@@H](OC)/C=C\C=C(/C)C(=O)NC(=CC1=O)C2=O [Tanespimycin] + O=c1cc(-c2cccc3c2Sc2ccccc2S3)oc(N2CCOCC2)c1 [KU55933] (first compound 0.01 µM, partner dose 5 µM) | 111 |
| C=CCNC1=C2C[C@@H](C)C[C@H](OC)[C@H](O)[C@@H](C)/C=C(\C)[C@H](OC(N)=O)[C@@H](OC)/C=C\C=C(/C)C(=O)NC(=CC1=O)C2=O [Tanespimycin] + COc1ccc(COc2ccc(Cc3cnc(N)nc3N)cc2OC)cc1 [GW2580] (first compound 0.01 µM, partner dose 5 µM) | 86.2 |
| CNC(=O)c1cc(Oc2ccc(NC(=O)Nc3ccc(Cl)c(C(F)(F)F)c3)cc2)ccn1 [sorafenib] + N#Cc1c(O)c2c(-c3ccc(-c4ccccc4O)cc3)csc2[nH]c1=O [A769662] (first compound 2 µM, partner dose 10 µM) | 85.1 |
| CN1CCN(c2ccc3nc(-c4c(N)c5c(F)cccc5[nH]c4=O)[nH]c3c2)CC1 [Dovitinib] + O=C1NC(=O)/C(=C/c2ccc(-c3ccc(F)cc3O)o2)S1 [AS252424] (first compound 0.5 µM, partner dose 5 µM) | 76 |
| CNC(=O)c1cc(Oc2ccc(NC(=O)Nc3ccc(Cl)c(C(F)(F)F)c3)cc2)ccn1 [sorafenib] + O=C(O)C(=O)Nc1sc2c(c1C(=O)O)CCNC2 [TCS401] (first compound 2 µM, partner dose 8.33333 µM) | 93.3 |
| C[C@@H](Oc1cc(-c2cnn(C3CCNCC3)c2)cnc1N)c1c(Cl)ccc(F)c1Cl [Crizotinib] + COc1cc2ncnc(Nc3ccc(Oc4ccccc4)cc3)c2cc1OC [SrcI1] (first compound 1 µM, partner dose 10 µM) | 73 |
| CS(=O)(=O)CCNCc1ccc(-c2ccc3ncnc(Nc4ccc(OCc5cccc(F)c5)c(Cl)c4)c3c2)o1 [lapatinib] + Oc1nc(-c2ccc(C(F)(F)F)cc2)nc2c1CSCC2 [XAV939] (first compound 4 µM, partner dose 10 µM) | 82.3 |
| C=CCNC1=C2C[C@@H](C)C[C@H](OC)[C@H](O)[C@@H](C)/C=C(\C)[C@H](OC(N)=O)[C@@H](OC)/C=C\C=C(/C)C(=O)NC(=CC1=O)C2=O [Tanespimycin] + O=C(O)C(=O)Nc1sc2c(c1C(=O)O)CCNC2 [TCS401] (first compound 0.01 µM, partner dose 8.33333 µM) | 88.9 |
| C=CCNC1=C2C[C@@H](C)C[C@H](OC)[C@H](O)[C@@H](C)/C=C(\C)[C@H](OC(N)=O)[C@@H](OC)/C=C\C=C(/C)C(=O)NC(=CC1=O)C2=O [Tanespimycin] + Oc1nc(-c2ccc(C(F)(F)F)cc2)nc2c1CSCC2 [XAV939] (first compound 0.01 µM, partner dose 10 µM) | 101 |
| CNC(=O)c1cc(Oc2ccc(NC(=O)Nc3ccc(Cl)c(C(F)(F)F)c3)cc2)ccn1 [sorafenib] + CCc1ccc(CCOc2ccc(CC3SC(=O)NC3=O)cc2)nc1 [pioglitazone] (first compound 2 µM, partner dose 10 µM) | 61.2 |
| C[C@@H](Oc1cc(-c2cnn(C3CCNCC3)c2)cnc1N)c1c(Cl)ccc(F)c1Cl [Crizotinib] + O=S(=O)(c1ccccc1)N(CC(F)(F)F)c1ccc(C(O)(C(F)(F)F)C(F)(F)F)cc1 [T0901317] (first compound 1 µM, partner dose 7 µM) | 66.7 |
